The full ranking holds about 81,000 sequences; the median of “one-hybrid fitness for binding parS DNA” is about -0.17, and the highest 2% start at about 0.51. The list shows a part of the results.
B1: Caulobacter ParB omega fusion; a variant is named by its letters at X, in order, B8GW30 (parent)
chain: MESVVVGEPGMSEGRRGLGRGLSALLGEVDAAPAQAPGEQLGGSREAPIEILQRNPDQPRRTFREEDLEDLSNSIREKGVLQPILVRPSPDTAGEYQIVAGERAWRAAQRAGLKTVPIMVRELDDLAVLEIGIIENVQRADLNVLEEALSYKVLMEKFERTQENIAQTIGKSXSHVANXMRLLXLPDEVQSYLVSGELTAXHARAIAAAADPVALAKQIIEGGLSVRETEALARKAPNLSAGKSKGGRPPRVKDTDTQALESDLSSVLGLDVSIDHRGSTGTLTITYATLEQLDDLCNRLTRGI

Variants of: B1
Test: one-hybrid fitness for binding parS DNA (scaled: cognate 1, non-cognate 0); higher = stronger binding
Conditions: with parS DNA site
Outline: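 Pre- and post-selection plasmids were Illumina-sequenced, three replicate libraries were pooled, and any variant with under 10 reads was removed. The libraries were Caulobacter ParB with four specificity codons randomised, selected in E. coli USO through a HIS3 reporter whose site is 19 bp from the promoter. Cells grew 48 hours at 37°C on M9 without histidine, with 0.1 mM IPTG and 5 mM 3-AT. Fitness is the log change in variant-to-wild-type read ratio, rescaled against cognate and non-cognate.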

one-hybrid fitness for binding parS DNA, 0.461:
RTWN

one-hybrid fitness for binding parS DNA, 0.946:
RSVS

one-hybrid fitness for binding parS DNA, 0.444:
RQAY

one-hybrid fitness for binding parS DNA, ≤ 0.2:
GKCN
WIAT
DFTV
QQMT
ASDF
QMIF
GQGI
NASF
LRTI
ECLR
IPMV
DKEG
ALKA
AQIG
MMKS
KRYV
YIVC
FGSR
VEPI
PGHC
TLYS
HCWL
MGTR
RLPR
KPSS
LDTS
GWRG
KRAD
KAAC
VRLV
EQKG
RRFI
TSID
SSRI
SRYL
QMTL
AFNP
QKPG
TRPG
GHSE
NTMT
EQES
LLSD
QVRN
TTRG
TTRQ
RFWM
GGNL
WQPT
WHPF
CMKR
ENAM
QRVV
THDK
LNWW
HQLR
MWFS
YCKV
AQVS
CLYV
QCAI
EKAM
KPTF
RHLI
SLIS
LKGT
ILKG
RSEK
DYKA
LTGA
CQFT
KFLW
RGPF
PSGY
MPIP
LLSS
HEIG
GYKA
HKRG

one-hybrid fitness for binding parS DNA, 0.708:
RRKG

one-hybrid fitness for binding parS DNA, 1.03:
RAYS
